These results are taken from the RNAGym collection of RNA variant scans (doi:10.1073/pnas.2313332121).

B1: TPR 5TU (parent)
chain: GGAUCUUCUCGAUCUAACAAAAAAGACAAAUCUGCCACAAAGCUUGAGAGCAUCUUCGGAUGCAGAGGCGGCAGCCUUCGGUGGCGCGAUAGCGCCAACGUUCUCAACUAUGACACGCAAAACGCGUGCUCCGUUGAAUGGAGUUUAUCAUG

Variants at the background level are over-represented here.

Variants of B1 are the subject of the data set. As to the kind of experiment: polymerase ribozyme fitness, log enrichment relative to wild type (log ratio); higher = more active; in vitro selection for triplet polymerase activity. The essentials:
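Mutant libraries of each subunit of a heterodimeric triplet polymerase ribozyme were built by PCR and transcribed. Each library went through one round of in vitro selection in triplicate: annealing with biotinylated primer, partner subunit and triplets, frozen incubation at −7 °C, gel excision of extended constructs, streptavidin-bead capture and RT-PCR. Input and output libraries were Illumina-sequenced; only genotypes with ≥10 input reads and ≥1 read per output were kept. Fitness is log2(genotype enrichment/wild-type enrichment), using inverse-variance-weighted replicate averages.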
With C8U A26U A47U A91C C96U, the “polymerase ribozyme fitness (log ratio)” value is not above -4.2.

As for U9C A40G A64G C87A, the “polymerase ribozyme fitness (log ratio)” value was not above -4.2.

As to C8U C27U C54A U55A A97U C103G U134G, the “polymerase ribozyme fitness (log ratio)” value is not above -4.2.

For the variant U9G A30G C93G G126U C129A, the “polymerase ribozyme fitness (log ratio)” value is not above -4.2.

For the variant C8U C32G C38G G68C C93U C108U C114G, the “polymerase ribozyme fitness (log ratio)” value was not above -4.2.

Turning to C8U U45A G83U G92U C131U A150G, the “polymerase ribozyme fitness (log ratio)” value was not above -4.2.

For the variant C8U A20U G86U A107G G143C U151A, the “polymerase ribozyme fitness (log ratio)” value was not above -4.2.

In the case of U9C U13A G88A G117A, the “polymerase ribozyme fitness (log ratio)” value was not above -4.2.

As to U9C A29U G48A C96U, the “polymerase ribozyme fitness (log ratio)” value was not above -4.2.

Turning to C8U A26C C76G G94C C125A, the “polymerase ribozyme fitness (log ratio)” value was not above -4.2.

For U9C A29U C72U G84A, the “polymerase ribozyme fitness (log ratio)” value is not above -4.2.

Consider C8U C35A C93U G141A, for which the “polymerase ribozyme fitness (log ratio)” value was not above -4.2.

As to C8U G58C C85U A97U A119U, the “polymerase ribozyme fitness (log ratio)” value is not above -4.2.

On to C8U G71U G81C A89C, for which the “polymerase ribozyme fitness (log ratio)” value was not above -4.2.

On to C8G U55A C116U, for which the “polymerase ribozyme fitness (log ratio)” value is not above -4.2.

Turning to C8U G59U C87A, the “polymerase ribozyme fitness (log ratio)” value was not above -4.2.

U9G A91U C114U U148C: the “polymerase ribozyme fitness (log ratio)” value was not above -4.2.

Turning to C8U C18G C38A C76U U78C A106U A110C C132G U135C U144C U148A C149G, the “polymerase ribozyme fitness (log ratio)” value was not above -4.2.

On to C8U A37C A41G U44C G62C A73G C93U A147C, for which the “polymerase ribozyme fitness (log ratio)” value was not above -4.2.

On to C8U A16U A47G U56G G65U G68C G83A A89U, for which the “polymerase ribozyme fitness (log ratio)” value was not above -4.2.

C8U G11C A23C A60G G94U G136U U144A: the “polymerase ribozyme fitness (log ratio)” value was not above -4.2.

Take C8G U31G A39U C43G C79U C85G C103A G126U U139A: the “polymerase ribozyme fitness (log ratio)” value was not above -4.2.

Consider C8U A20C C75A A89U U90G C93U C99A, for which the “polymerase ribozyme fitness (log ratio)” value is not above -4.2.

For the variant U9A G34C C95A, the “polymerase ribozyme fitness (log ratio)” value is not above -4.2.

Take U9G A12G C96A C125U U134A: the “polymerase ribozyme fitness (log ratio)” value was not above -4.2.

With U9A A40C G46U C85U C96A, the “polymerase ribozyme fitness (log ratio)” value was not above -4.2.

In the case of U9C U44G U56A G68U C79A G84C C95U C103A C125G, the “polymerase ribozyme fitness (log ratio)” value is not above -4.2.

In the case of C8G U61G C63U C85G, the “polymerase ribozyme fitness (log ratio)” value was not above -4.2.

With C8U A23U G62A G88U C103A U134G, the “polymerase ribozyme fitness (log ratio)” value was not above -4.2.

With C8U A23U G59U G68U U82C A91U A97U G133C, the “polymerase ribozyme fitness (log ratio)” value is not above -4.2.

On to U9A G11A A30U G74U U104C, for which the “polymerase ribozyme fitness (log ratio)” value is not above -4.2.

U9A A20C G70C C96U C99A: the “polymerase ribozyme fitness (log ratio)” value is not above -4.2.

As for C8U A17U G42C C116U C125U U146G, the “polymerase ribozyme fitness (log ratio)” value is not above -4.2.

In the case of U9C A110U, the “polymerase ribozyme fitness (log ratio)” value is not above -4.2.

For the variant C8U A39G C99U A110G U146A, the “polymerase ribozyme fitness (log ratio)” value is not above -4.2.

As to U9A U135G, the “polymerase ribozyme fitness (log ratio)” value is not above -4.2.

For U9C A60C G81A A137U, the “polymerase ribozyme fitness (log ratio)” value was not above -4.2.

In the case of C8U C32A G58C C93G G94U C95U G117U, the “polymerase ribozyme fitness (log ratio)” value is not above -4.2.

As for C8G U53A G59C G92U C131A, the “polymerase ribozyme fitness (log ratio)” value is not above -4.2.

Turning to C8U U44A G50A C57U C72U G92A G141U G143U A150G, the “polymerase ribozyme fitness (log ratio)” value is not above -4.2.

With U9C A24G, the “polymerase ribozyme fitness (log ratio)” value is not above -4.2.

U9C A12C C76A A91G A120G A147U: the “polymerase ribozyme fitness (log ratio)” value is not above -4.2.

Turning to C8U A26U U82G C95A, the “polymerase ribozyme fitness (log ratio)” value was not above -4.2.

With U9C G11C A16C A40G U44A U55G U56A C93U U144C U151G, the “polymerase ribozyme fitness (log ratio)” value is not above -4.2.

On to C8U G62A C105U A142U G143C, for which the “polymerase ribozyme fitness (log ratio)” value is not above -4.2.

Take C8U C93U C99G: the “polymerase ribozyme fitness (log ratio)” value was not above -4.2.

For U9A A23C A24G G84A G88U C93U C149U, the “polymerase ribozyme fitness (log ratio)” value is not above -4.2.

In the case of C8G U55G G65A G68A C99U, the “polymerase ribozyme fitness (log ratio)” value was not above -4.2.

Take C8U U9A G92U C108G A120U C129A C149G: the “polymerase ribozyme fitness (log ratio)” value was not above -4.2.

As for C8U G50U G71C C85G, the “polymerase ribozyme fitness (log ratio)” value was not above -4.2.

Turning to C8U U82A G92C G100C G124U C132U, the “polymerase ribozyme fitness (log ratio)” value was not above -4.2.

Consider U9A U33G U77G A121C A142C A150U, for which the “polymerase ribozyme fitness (log ratio)” value was not above -4.2.

For the variant U9A A24U A52G G70C A107C U144A, the “polymerase ribozyme fitness (log ratio)” value is not above -4.2.

U9G C10G C35A G84U: the “polymerase ribozyme fitness (log ratio)” value was not above -4.2.

U9A U13A A29G C96A C132A: the “polymerase ribozyme fitness (log ratio)” value was not above -4.2.

On to U9G A39C U56A G86A A120U U148G, for which the “polymerase ribozyme fitness (log ratio)” value was not above -4.2.

For U9A G71C C85U, the “polymerase ribozyme fitness (log ratio)” value is not above -4.2.

With U9A G94U C95U C103G C132U, the “polymerase ribozyme fitness (log ratio)” value was not above -4.2.

For U9A A24C C93A C103G A113U C114U, the “polymerase ribozyme fitness (log ratio)” value is not above -4.2.

C8U A49C: the “polymerase ribozyme fitness (log ratio)” value was not above -4.2.

As for U9C A17C C54U A120G, the “polymerase ribozyme fitness (log ratio)” value was not above -4.2.

Consider C8U G58A G62C U82G A106G G141C, for which the “polymerase ribozyme fitness (log ratio)” value was not above -4.2.

In the case of U9A A21G A22U C27A C63G C99U U102A, the “polymerase ribozyme fitness (log ratio)” value is not above -4.2.

Take U9C A12G A22U C75G G83C C85A C99A: the “polymerase ribozyme fitness (log ratio)” value was not above -4.2.

C8U A28G A29U A30U U33A A73G G92U U148C: the “polymerase ribozyme fitness (log ratio)” value is not above -4.2.

For the variant U9G A20C U55A C96U A97U, the “polymerase ribozyme fitness (log ratio)” value was not above -4.2.

Consider U9A A16C A22U A41C C76G C93U A138U A142G, for which the “polymerase ribozyme fitness (log ratio)” value was not above -4.2.

With U9A A30U A37G U44A G68C C85A C96U A120G U139G A142G U144A, the “polymerase ribozyme fitness (log ratio)” value is not above -4.2.

Consider U9A A26U G92U A142U, for which the “polymerase ribozyme fitness (log ratio)” value is not above -4.2.

For C8U A39C G59C C96U C103A C114U C116U, the “polymerase ribozyme fitness (log ratio)” value is not above -4.2.

As for C8U C14U U31G C108U A138C, the “polymerase ribozyme fitness (log ratio)” value was not above -4.2.

C8U G42C C57U G74U C79U A107C: the “polymerase ribozyme fitness (log ratio)” value was not above -4.2.

Regarding C8U A52U U53A U56G A66C C75U C85U U139C A150C, the “polymerase ribozyme fitness (log ratio)” value is not above -4.2.

For U9A A21C G42A A47C U53G U55A G67A C118A, the “polymerase ribozyme fitness (log ratio)” value is not above -4.2.

With C8U A49G G100U U145A, the “polymerase ribozyme fitness (log ratio)” value is not above -4.2.

For the variant U9A A39U U61A C76U C93A A120U G141A, the “polymerase ribozyme fitness (log ratio)” value is not above -4.2.

On to C8U C54A, for which the “polymerase ribozyme fitness (log ratio)” value was -3.8.

Turning to U9A G46A G67A C85A A147G U151A, the “polymerase ribozyme fitness (log ratio)” value was not above -4.2.

Take U9A U55A G74C A97U: the “polymerase ribozyme fitness (log ratio)” value was not above -4.2.

Turning to C8U A24U C27U A37C G74A G81A A106C G117C G128A, the “polymerase ribozyme fitness (log ratio)” value was not above -4.2.

Turning to C8U C54G G67A A97C G136A, the “polymerase ribozyme fitness (log ratio)” value is not above -4.2.

Take C8U C79A A89U C95G A107U: the “polymerase ribozyme fitness (log ratio)” value is not above -4.2.

As to U9A G74A A106G A122U, the “polymerase ribozyme fitness (log ratio)” value is not above -4.2.
